Here are results for 31 molecules from PMC9911399, “Two distinct binding modes provide the RNA-binding protein RbFox with extraordinary sequence specificity”.

Residue numbers refer to the chain shown, from its start. The list shows a part of the results.

T1: RBFOX1 RRM RbFoxmut (Fox-RRM*) (Homo sapiens, UniProt Q9NWB1 109-208, R118D;E147R;N151S;E152T)
T1 sequence: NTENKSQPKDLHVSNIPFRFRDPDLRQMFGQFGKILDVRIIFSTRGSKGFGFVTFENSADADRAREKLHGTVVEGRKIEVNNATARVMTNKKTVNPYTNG

B1: UAGAACC (DNA:RNA)
RNA: GGGAGACCGGAAUUCAGAUUGUCCUAGAACCUUAAAUCCCGUCGUAGCCACCA
DNA 1: CAATCTGAATTCCGGTCTCCC
DNA 2: TGGTGGCTACGACGGGATT
B2: UAUGUGU (DNA:RNA)
RNA: B1 RNA with G27U, A28G, A29U, C30G, C31U
DNA 1: CAATCTGAATTCCGGTCTCCC
DNA 2: TGGTGGCTACGACGGGATT
B3: CACGACG (DNA:RNA)
RNA: B1 RNA with U25C, G27C, A28G, C31G
DNA 1: CAATCTGAATTCCGGTCTCCC
DNA 2: TGGTGGCTACGACGGGATT
B4: CACAGUU (DNA:RNA)
RNA: B1 RNA with U25C, G27C, A29G, C30U, C31U
DNA 1: CAATCTGAATTCCGGTCTCCC
DNA 2: TGGTGGCTACGACGGGATT
B5: ACCGCGU (DNA:RNA)
RNA: GGGAGACCGGAAUUCAGAUUGUCCACCGCGUUUAAAUCCCGUCGUAGCCACCA
DNA 1: CAATCTGAATTCCGGTCTCCC
DNA 2: TGGTGGCTACGACGGGATT
B6: CUAUUCC (DNA:RNA)
RNA: B1 RNA with U25C, A26U, G27A, A28U, A29U
DNA 1: CAATCTGAATTCCGGTCTCCC
DNA 2: TGGTGGCTACGACGGGATT
B7: GGGGACA (DNA:RNA)
RNA: B1 RNA with U25G, A26G, A28G, C31A
DNA 1: CAATCTGAATTCCGGTCTCCC
DNA 2: TGGTGGCTACGACGGGATT
B8: GCCCGUA (DNA:RNA)
RNA: B5 RNA with A25G, G28C, C29G, G30U, U31A
DNA 1: CAATCTGAATTCCGGTCTCCC
DNA 2: TGGTGGCTACGACGGGATT
B9: CUUAAGG (DNA:RNA)
RNA: B1 RNA with U25C, A26U, G27U, C30G, C31G
DNA 1: CAATCTGAATTCCGGTCTCCC
DNA 2: TGGTGGCTACGACGGGATT
B10: UCGUGAC (DNA:RNA)
RNA: B1 RNA with A26C, A28U, A29G, C30A
DNA 1: CAATCTGAATTCCGGTCTCCC
DNA 2: TGGTGGCTACGACGGGATT
B11: ACCGAAU (DNA:RNA)
RNA: B5 RNA with C29A, G30A
DNA 1: CAATCTGAATTCCGGTCTCCC
DNA 2: TGGTGGCTACGACGGGATT
B12: AACGUGG (DNA:RNA)
RNA: B5 RNA with C26A, C29U, U31G
DNA 1: CAATCTGAATTCCGGTCTCCC
DNA 2: TGGTGGCTACGACGGGATT
B13: UAGGCGA (DNA:RNA)
RNA: B5 RNA with A25U, C26A, C27G, U31A
DNA 1: CAATCTGAATTCCGGTCTCCC
DNA 2: TGGTGGCTACGACGGGATT
B14: UGAAUAC (DNA:RNA)
RNA: B1 RNA with A26G, G27A, A29U, C30A
DNA 1: CAATCTGAATTCCGGTCTCCC
DNA 2: TGGTGGCTACGACGGGATT
B15: CGCUAGC (DNA:RNA)
RNA: B5 RNA with A25C, C26G, G28U, C29A, U31C
DNA 1: CAATCTGAATTCCGGTCTCCC
DNA 2: TGGTGGCTACGACGGGATT
B16: GGUAGCC (DNA:RNA)
RNA: B1 RNA with U25G, A26G, G27U, A29G
DNA 1: CAATCTGAATTCCGGTCTCCC
DNA 2: TGGTGGCTACGACGGGATT
B17: AAAACUC (DNA:RNA)
RNA: B1 RNA with U25A, G27A, A29C, C30U
DNA 1: CAATCTGAATTCCGGTCTCCC
DNA 2: TGGTGGCTACGACGGGATT
B18: GACUAGA (DNA:RNA)
RNA: B5 RNA with A25G, C26A, G28U, C29A, U31A
DNA 1: CAATCTGAATTCCGGTCTCCC
DNA 2: TGGTGGCTACGACGGGATT
B19: CCAGGAA (DNA:RNA)
RNA: B5 RNA with A25C, C27A, C29G, G30A, U31A
DNA 1: CAATCTGAATTCCGGTCTCCC
DNA 2: TGGTGGCTACGACGGGATT
B20: CACCCCG (DNA:RNA)
RNA: B5 RNA with A25C, C26A, G28C, G30C, U31G
DNA 1: CAATCTGAATTCCGGTCTCCC
DNA 2: TGGTGGCTACGACGGGATT
B21: CUGCCAA (DNA:RNA)
RNA: B5 RNA with A25C, C26U, C27G, G28C, G30A, U31A
DNA 1: CAATCTGAATTCCGGTCTCCC
DNA 2: TGGTGGCTACGACGGGATT
B22: GCUGUUA (DNA:RNA)
RNA: B5 RNA with A25G, C27U, C29U, G30U, U31A
DNA 1: CAATCTGAATTCCGGTCTCCC
DNA 2: TGGTGGCTACGACGGGATT
B23: GGCUAUC (DNA:RNA)
RNA: B1 RNA with U25G, A26G, G27C, A28U, C30U
DNA 1: CAATCTGAATTCCGGTCTCCC
DNA 2: TGGTGGCTACGACGGGATT
B24: AAAUUGU (DNA:RNA)
RNA: B5 RNA with C26A, C27A, G28U, C29U
DNA 1: CAATCTGAATTCCGGTCTCCC
DNA 2: TGGTGGCTACGACGGGATT
B25: UCGUACU (DNA:RNA)
RNA: B1 RNA with A26C, A28U, C31U
DNA 1: CAATCTGAATTCCGGTCTCCC
DNA 2: TGGTGGCTACGACGGGATT
B26: ACAGCUU (DNA:RNA)
RNA: B5 RNA with C27A, G30U
DNA 1: CAATCTGAATTCCGGTCTCCC
DNA 2: TGGTGGCTACGACGGGATT
B27: AUACGGC (DNA:RNA)
RNA: B5 RNA with C26U, C27A, G28C, C29G, U31C
DNA 1: CAATCTGAATTCCGGTCTCCC
DNA 2: TGGTGGCTACGACGGGATT
B28: GGGUCCG (DNA:RNA)
RNA: B1 RNA with U25G, A26G, A28U, A29C, C31G
DNA 1: CAATCTGAATTCCGGTCTCCC
DNA 2: TGGTGGCTACGACGGGATT
B29: UACCUAA (DNA:RNA)
RNA: B1 RNA with G27C, A28C, A29U, C30A, C31A
DNA 1: CAATCTGAATTCCGGTCTCCC
DNA 2: TGGTGGCTACGACGGGATT
B30: GCGCUAG (DNA:RNA)
RNA: B5 RNA with A25G, C27G, G28C, C29U, G30A, U31G
DNA 1: CAATCTGAATTCCGGTCTCCC
DNA 2: TGGTGGCTACGACGGGATT
B31: AUCGCUC (DNA:RNA)
RNA: B5 RNA with C26U, G30U, U31C
DNA 1: CAATCTGAATTCCGGTCTCCC
DNA 2: TGGTGGCTACGACGGGATT

The target in the experiment is T1, RBFOX1 RRM RbFoxmut (Fox-RRM*). As to the kind of experiment: EMSA; HiTS-Eq, 1 nM pool, 10 min; buffer printed only for the single-RNA assays: 10 mM Tris pH 7.5, 150 mM NaCl, 3.4 mM EDTA, 0.001% NP-40, 30 C. The conditions noted are these: tags: His6 N-terminal (pET28a); label: 5' 32P. An outline of the steps: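 Relative association constants, normalised to the cognate motif, were derived by comparing read counts of each RNA species with those of the control reaction. The RNA sequenced was the free fraction, separated by 8% native PAGE after a 10 min equilibration in 50 µL of 1 nM 5′-radiolabelled RNA (7 randomized nucleotides) with increasing concentrations of purified wild-type or mutant RbFox RRM.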
(In general: In EMSA bound probe runs differently from free probe, usually more slowly.)
Consider B1, for which the binding signal is 0.0522 KA relative to UGCAUGU.
Turning to B2, the binding signal is 0.168 KA relative to UGCAUGU.
For B3 the value was 0.0885 KA relative to UGCAUGU; for B4, 0.0725 KA relative to UGCAUGU; for B5, 0.0952 KA relative to UGCAUGU.
For B6 the value was 0.0747 KA relative to UGCAUGU; for B7, 0.066 KA relative to UGCAUGU; for B8, 0.101 KA relative to UGCAUGU.
As for B9, the binding signal was 0.0754 KA relative to UGCAUGU.
B10: the binding signal was 0.0717 KA relative to UGCAUGU.
For B11 the value was 0.0844 KA relative to UGCAUGU; for B12, 0.0982 KA relative to UGCAUGU.
For B13 the value was 0.0581 KA relative to UGCAUGU; for B14, 0.0848 KA relative to UGCAUGU.
For B15 the value was 0.116 KA relative to UGCAUGU.
For the molecule B16, the binding signal is 0.116 KA relative to UGCAUGU.
Consider B17, for which the binding signal was 0.0296 KA relative to UGCAUGU.
For B18 the value was 0.123 KA relative to UGCAUGU; for B19, 0.1 KA relative to UGCAUGU.
For B20 the value was 0.0813 KA relative to UGCAUGU; for B21, 0.0589 KA relative to UGCAUGU; for B22, 0.144 KA relative to UGCAUGU.
On to B23, for which the binding signal is 0.226 KA relative to UGCAUGU.
For B24 the value was 0.0978 KA relative to UGCAUGU; for B25, 0.0912 KA relative to UGCAUGU.
For B26 the value was 0.112 KA relative to UGCAUGU.
For B27 the value was 0.107 KA relative to UGCAUGU; for B28, 0.238 KA relative to UGCAUGU; for B29, 0.0888 KA relative to UGCAUGU.
For the molecule B30, the binding signal was 0.11 KA relative to UGCAUGU.
For B31 the value was 0.0696 KA relative to UGCAUGU.
